Data as given in PubChem BioAssay (NCI).
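Values below derive from 48-hour exposures of cells grown in 96-well plates, with endpoints linearly interpolated between the two concentrations bracketing the appropriate inhibition level. GI50 marks 50% less growth. At the TGI there is no net growth.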

Test system: NCI-H322M lung
Test: growth of human tumour cells (NCI), 48 h

## CS(=O)(=O)Nc1cc(-c2ccc3ncc(C#N)c(NCc4ccccc4O)c3c2)cnc1Cl
  GI50: 1.03 µM
  TGI: 8.47 µM
